Out of some 310,000 compounds screened, about 14,000 (4.5%) showed an effect of 50% or more. Effects have a minus sign here. The list shows a part of the results.

The text below walks through data of PMC4336329 (PLoS ONE, 2015).
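Note: peak tail current of the secondary pulse compared with the same well before compound.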

The assay deals with human ether-à-go-go-related gene (hERG) potassium channel (human, UniProt Q12809). In words: primary screen, population patch clamp on CHO cells stably expressing hERG.
Chain of human ether-à-go-go-related gene (hERG) potassium channel (Q12809 whole entry, looked up): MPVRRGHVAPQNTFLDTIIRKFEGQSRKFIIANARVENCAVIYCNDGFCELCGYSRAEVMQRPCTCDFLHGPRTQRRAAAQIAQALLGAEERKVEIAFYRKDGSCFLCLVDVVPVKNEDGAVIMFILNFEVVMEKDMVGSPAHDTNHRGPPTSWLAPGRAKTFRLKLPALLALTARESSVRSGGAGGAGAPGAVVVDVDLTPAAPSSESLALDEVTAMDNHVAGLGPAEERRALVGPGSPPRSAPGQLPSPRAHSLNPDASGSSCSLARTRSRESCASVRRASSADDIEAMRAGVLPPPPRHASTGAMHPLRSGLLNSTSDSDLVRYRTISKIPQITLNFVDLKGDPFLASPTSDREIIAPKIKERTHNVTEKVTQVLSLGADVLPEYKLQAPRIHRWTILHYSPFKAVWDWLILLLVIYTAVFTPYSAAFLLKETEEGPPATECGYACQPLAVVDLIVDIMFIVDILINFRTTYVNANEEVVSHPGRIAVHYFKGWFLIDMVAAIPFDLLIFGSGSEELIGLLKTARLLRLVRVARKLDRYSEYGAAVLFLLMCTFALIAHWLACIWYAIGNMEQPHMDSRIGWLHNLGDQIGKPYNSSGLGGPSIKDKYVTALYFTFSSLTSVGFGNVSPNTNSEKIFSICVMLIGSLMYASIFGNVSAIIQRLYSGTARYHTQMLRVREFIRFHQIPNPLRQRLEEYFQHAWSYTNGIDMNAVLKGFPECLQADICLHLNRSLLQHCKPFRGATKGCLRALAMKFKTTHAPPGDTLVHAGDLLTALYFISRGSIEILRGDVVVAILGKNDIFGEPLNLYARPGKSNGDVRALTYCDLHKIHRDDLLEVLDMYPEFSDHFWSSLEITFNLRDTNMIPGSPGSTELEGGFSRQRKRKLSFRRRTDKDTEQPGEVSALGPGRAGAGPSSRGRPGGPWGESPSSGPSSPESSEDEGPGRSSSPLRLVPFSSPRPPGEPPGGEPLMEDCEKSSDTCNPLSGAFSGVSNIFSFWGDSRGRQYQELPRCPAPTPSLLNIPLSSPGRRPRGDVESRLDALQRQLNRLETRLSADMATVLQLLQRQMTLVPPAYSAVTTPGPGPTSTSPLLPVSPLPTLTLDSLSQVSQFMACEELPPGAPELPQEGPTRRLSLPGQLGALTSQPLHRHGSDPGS
For the molecule `Cc1cccc(OCC(=O)Nc2ccc(C(=O)O)cc2NC(=O)COc2cccc(C)c2)c1`, the “hERG current change (%, negative = inhibition) at 10uM” value is reported as 6.64%.

On to `COc1ccc(NC(=O)C(=O)N/N=C/c2cccnc2)cc1`, for which the “hERG current change (%, negative = inhibition) at 10uM” value is -7.67%.

For `CCOC(=O)N1CCN(S(=O)(=O)c2ccc(C(=O)N(CCN(C)C)c3nc4ccc(Cl)cc4s3)cc2)CC1.Cl`, the “hERG current change (%, negative = inhibition) at 10uM” value was -28.5%.

Regarding `COc1ccc(OC)c(-c2nnc(SCC(=O)N3CCCc4ccccc43)o2)c1`, the “hERG current change (%, negative = inhibition) at 10uM” value is on record as -34.7%.

Consider `COc1cccc(NC(=O)Nc2nc(SC(C)(C)C)ns2)c1`, for which the “hERG current change (%, negative = inhibition) at 10uM” value is reported as 11.5%.

Turning to `CCOC(=O)C1(CC2CCCCO2)CCN(Cc2nccn2-c2ccc(OC)cc2)CC1` (centres unmarked), the “hERG current change (%, negative = inhibition) at 10uM” value is given as -5.78%.

As to `Cc1ccc(S(=O)(=O)Nc2cc3c4c(c2)C(C)C(=O)N4CCC3)cc1` (centres unmarked), the “hERG current change (%, negative = inhibition) at 10uM” value is -1.44%.

As to `O=C(CCCn1ncn2c(cc3occc32)c1=O)N1CCc2ccccc2C1`, the “hERG current change (%, negative = inhibition) at 10uM” value is -63%.

Consider `C[C@@]12C(=O)Nc3ccc(Br)cc3C(=O)N1[C@H]1c3cc(Br)ccc3OC[C@@H]1[C@@H]2c1ccccc1`, for which the “hERG current change (%, negative = inhibition) at 10uM” value came out at 36.4%.

On to `O=C(Nc1cccn(Cc2c(Cl)cccc2Cl)c1=O)c1ccccc1Cl`, for which the “hERG current change (%, negative = inhibition) at 10uM” value was found to be 0.676%.

Take `O=c1[nH]c2ccc(NC(=S)Nc3ccc(F)cc3)cc2[nH]1`: the “hERG current change (%, negative = inhibition) at 10uM” value came to 17.9%.

In the case of `CCc1nn(CCCC(=O)NCc2cc(Br)ccc2OC)c(=O)c2cc3occc3n12`, the “hERG current change (%, negative = inhibition) at 10uM” value is -2.73%.

Regarding `O=C(CCNS(=O)(=O)c1ccccc1)N1CCN(C(c2ccccc2)c2ccccc2)CC1`, the “hERG current change (%, negative = inhibition) at 10uM” value is -20.6%.

In the case of `COc1cc(C(=O)NCCC2=CCCCC2)ccc1OCc1c(C)noc1C`, the “hERG current change (%, negative = inhibition) at 10uM” value is 9.16%.

Take `O=c1c2c(nc3n1CCCCC3)-c1ccccc1CC21CCCCC1`: the “hERG current change (%, negative = inhibition) at 10uM” value is 13.9%.

For the molecule `O=C(NCCCN1CCCC1)c1ccc2c(c1)N(Cc1ccc(F)cc1)C(=O)c1ccccc1S2=O` (centres unmarked), the “hERG current change (%, negative = inhibition) at 10uM” value is on record as -26.1%.

Consider `Cc1cc(C)n(-c2nnc(C)n2/N=C/c2ccc(O)cc2)n1`, for which the “hERG current change (%, negative = inhibition) at 10uM” value came out at 16.6%.

For `Cc1c(C(=O)NCc2ccco2)cccc1[N+](=O)[O-]`, the “hERG current change (%, negative = inhibition) at 10uM” value is recorded as -6.07%.

Turning to `CCCn1nnnc1NC(=O)c1cc(Cl)ccc1Cl`, the “hERG current change (%, negative = inhibition) at 10uM” value is 1.82%.

In the case of `N/C(=N\OC(=O)CC1CCCCC1)c1ccccc1`, the “hERG current change (%, negative = inhibition) at 10uM” value is on record as -7.04%.

In the case of `COc1ccccc1N1CCN(C(=O)CCCn2c(=O)[nH]c3ccsc3c2=O)CC1`, the “hERG current change (%, negative = inhibition) at 10uM” value is recorded as 4.33%.

On to `CCc1nc(SCC(=O)NCc2ccccc2)c2c(=O)n(C)c(=O)n(C)c2n1`, for which the “hERG current change (%, negative = inhibition) at 10uM” value was found to be 3.98%.

Consider `CC1(CC(=O)Nc2ccccc2)NC(=S)N(c2ccccc2)N1` (centres unmarked), for which the “hERG current change (%, negative = inhibition) at 10uM” value is 42.4%.
